# According to the supplement of paper PMC3334620:
# In all, about 33,000 sequences were measured (“E-score (-0.5 to 0.5)”: median about -0.053, highest 2% from about 0.37 on). This is one part of the list.
# Biological target: Hap1 (UniProt P0CE41)
# Experiment: PBM E-score (8-mer binding enrichment) (E-score (-0.5 to 0.5)); higher = stronger / more preferred TF binding; most listed sequences are background and not binding sites
# Details: protein concentration: 200 nM; construct: GST-DNA-binding domain
# Method in brief: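 The E-score, a modified Wilcoxon-Mann-Whitney statistic, was computed by the Universal PBM Analysis Suite for every ungapped eight-base word pooled with its reverse complement. Scans behind it were normalised with masliner after bound GST-tagged yeast transcription factors were detected with fluorescent anti-GST. The proteins, at about 100-200 nM, had been applied to universal all-10-mer Agilent arrays made double-stranded by primer extension.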
# Sequence of UniProt P0CE41 (P0CE41 whole entry): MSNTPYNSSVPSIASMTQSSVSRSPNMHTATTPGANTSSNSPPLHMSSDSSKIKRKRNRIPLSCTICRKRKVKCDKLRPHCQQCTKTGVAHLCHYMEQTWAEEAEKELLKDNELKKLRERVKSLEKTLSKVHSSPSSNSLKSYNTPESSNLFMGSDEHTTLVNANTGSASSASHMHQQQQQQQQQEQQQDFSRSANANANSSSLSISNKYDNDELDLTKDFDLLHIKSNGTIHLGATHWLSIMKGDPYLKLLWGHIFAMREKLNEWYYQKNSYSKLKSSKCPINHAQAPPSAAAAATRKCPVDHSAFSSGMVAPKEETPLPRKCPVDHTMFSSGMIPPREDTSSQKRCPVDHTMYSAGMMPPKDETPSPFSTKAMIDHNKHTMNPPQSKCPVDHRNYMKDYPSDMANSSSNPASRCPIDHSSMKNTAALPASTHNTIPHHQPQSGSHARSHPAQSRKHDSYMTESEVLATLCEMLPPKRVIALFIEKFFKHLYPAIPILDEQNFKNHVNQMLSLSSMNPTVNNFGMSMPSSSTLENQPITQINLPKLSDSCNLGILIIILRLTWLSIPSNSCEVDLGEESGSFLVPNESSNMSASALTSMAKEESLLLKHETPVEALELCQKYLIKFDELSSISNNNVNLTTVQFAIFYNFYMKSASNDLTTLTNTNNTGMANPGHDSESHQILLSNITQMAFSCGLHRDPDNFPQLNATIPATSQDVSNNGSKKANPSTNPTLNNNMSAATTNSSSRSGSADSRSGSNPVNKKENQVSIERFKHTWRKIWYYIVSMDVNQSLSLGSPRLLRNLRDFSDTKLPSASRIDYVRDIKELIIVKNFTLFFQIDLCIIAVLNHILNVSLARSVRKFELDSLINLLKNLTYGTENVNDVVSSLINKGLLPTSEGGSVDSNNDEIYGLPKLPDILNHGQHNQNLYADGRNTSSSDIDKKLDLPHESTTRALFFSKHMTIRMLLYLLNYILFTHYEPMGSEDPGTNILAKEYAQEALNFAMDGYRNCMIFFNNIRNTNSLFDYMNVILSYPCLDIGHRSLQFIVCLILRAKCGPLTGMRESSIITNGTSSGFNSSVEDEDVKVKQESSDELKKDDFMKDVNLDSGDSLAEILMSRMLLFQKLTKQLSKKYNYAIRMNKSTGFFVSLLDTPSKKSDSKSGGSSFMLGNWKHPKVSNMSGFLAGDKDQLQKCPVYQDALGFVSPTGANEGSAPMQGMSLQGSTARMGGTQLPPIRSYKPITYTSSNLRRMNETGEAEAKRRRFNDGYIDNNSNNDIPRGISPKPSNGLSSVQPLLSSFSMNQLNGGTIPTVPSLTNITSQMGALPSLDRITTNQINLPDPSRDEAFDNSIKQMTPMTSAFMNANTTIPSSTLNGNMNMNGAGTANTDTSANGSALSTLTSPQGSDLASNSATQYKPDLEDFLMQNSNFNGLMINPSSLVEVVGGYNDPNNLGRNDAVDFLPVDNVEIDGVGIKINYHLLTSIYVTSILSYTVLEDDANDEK
row,Sequence,PBM E-score
1,CACGCTCC,-0.11
2,CAGATATA,-0.0944
3,CGAATCCG,0.208
4,GAAGTCAA,-0.0685
5,AGCCTTTC,-0.0369
6,ATTCAACA,-0.0848
7,CCTTTAAC,0.00377
8,AATCCTTA,-0.203
9,ATTCGCGA,0.0217
10,CCCCCCCG,-0.203
11,AAAAGCCT,-0.221
12,ATAGTCAT,-0.106
13,ATGTGGCG,0.00551
14,GCCCTCGC,-0.0401
15,GTGTATAA,-0.311
16,CCCGGGCC,0.387
17,CCGACTGA,0.167
18,CCGACGCC,0.303
19,AATAGGGT,-0.143
20,CACACTCA,-0.139
21,AGCCTCCC,-0.194
22,ATACACTA,-0.115
23,ACACAAAG,-0.193
24,CAAGTATG,-0.187
25,TCGAGCGA,0.105

row,Sequence,PBM E-score
1,CAAATCAA,-0.253
2,CCGCACAC,0.126
3,AGATCGGA,0.376
4,CCTGATTA,0.114
5,AATTGTCC,0.101
6,ACAGTACA,-0.00621
7,AGACAGTG,-0.0768
8,AGACTTTA,-0.201
9,AGCACAGA,-0.079
10,GAAATCTA,0.114
11,ATGTCTGG,0.0302
12,AGAATTCT,0.108
13,CCTGTCGC,-0.0985
14,AGGGAATG,-0.197
15,CCTTTTTC,-0.0545
16,GTAGTTTA,0.0265
17,GAATAGCA,-0.099
18,GAAACGAC,-0.037
19,AAAAAAAC,-0.0967
20,ACCCCGTA,0.0631
21,CAAGGACG,-0.219
22,ACCTAACA,0.0797
23,GCTGCACA,-0.164
24,ACTTGAGG,-0.147
25,CGCCGGCA,0.349

row,Sequence,PBM E-score
1,CAAAGGCC,-0.00112
2,ACGGGCCA,0.226
3,GACTGTGC,-0.247
4,CCCCTGCG,-0.134
5,CCGACCCA,0.348
6,AACAGTAC,-0.075
7,CTTGAGGC,-0.0726
8,TTATGCAA,-0.287
9,ATTGTACA,-0.0711
10,AAGTACGC,-0.0917
11,ACGCTGGC,-0.0746
12,GTGACAGA,-0.0988
13,ACTGAACG,-0.195
14,ACATTAAC,-0.00477
15,AGTTCCGC,0.278
16,ACGAGGAT,-0.248
17,CTCCTTAC,-0.144
18,AGCGTCCT,-0.288
19,GTTTTTCA,-0.0668
20,GAAAACCA,-0.0432
21,ATCGCATA,0.124
22,ATGGGATA,-0.118
23,TGACTCAA,-0.251
24,ATCCAAAT,-0.0458
25,GCGGGCCC,0.216

row,Sequence,PBM E-score
1,CCCTCTTC,-0.218
2,ATTCCCAA,-0.0973
3,ACTGCTCA,-0.177
4,GGTCCTTA,0.0379
5,AGATTCCG,0.336
6,CAAAAGGA,-0.125
7,CGCACATA,0.105
8,CCAGGCCG,0.0209
9,AGAGAGCT,-0.23
10,AGTTGGGG,0.00602
11,ATTCAAGA,-0.0722
12,GACGAACA,0.179
13,GGCAGAAA,0.137
14,CGCTAGTC,-0.203
15,GTCCTCAC,-0.0706
16,CTCGTCTA,-0.272
17,AAGTACAC,-0.08
18,AAGCAATA,-0.0998
19,ATAGGCCC,0.209
20,AACGGCTA,0.0898
21,ATCCAGCA,-0.294
22,CCGCATAC,0.153
23,GGTCAGCA,-0.0216
24,GCGTATAC,-0.0823
25,CGTTGTAC,-0.112

row,Sequence,PBM E-score
1,AGGAGAAC,-0.106
2,ATGGAGTA,-0.0136
3,TAAGCACA,0.00547
4,GTGAGGGA,-0.133
5,CGGGTCCC,0.117
6,AATTCTGA,-0.12
7,GTCCTCAA,-0.128
8,CAACGTCG,0.0653
9,GACGCGGA,0.133
10,ATGTGCTC,-0.0449
11,ATCCCATG,-0.0497
12,ATACACTC,0.0362
13,CTCAAGGC,-0.0737
14,CATATTAA,-0.184
15,ACCAAGCA,-0.145
16,ACAGCCGG,0.315
17,AGTTATGC,0.0344
18,ACAGCACC,0.0827
19,ACCGCCTA,0.0313
20,CCATTTTC,0.0262
21,GGTTTGGA,-0.178
22,ATGTCGTG,-0.241
23,AGTTATAA,-0.15
24,CTAATTCA,-0.11
25,CGCATGTA,0.0504

row,Sequence,PBM E-score
1,CGTACAAG,-0.0575
2,AAGCTCGA,-0.0556
3,ACTGTTAC,-0.229
4,CAGTGAAA,-0.0601
5,ATGTCTGA,-0.225
6,AGCTGCCA,-0.131
7,CAAACTAC,-0.155
8,GCTCCCAC,-0.125
9,CGTTCCGC,0.211
10,CCCACTTA,-0.0913
11,CGCAACAG,0.105
12,CCAGATCG,-0.0037
13,ATTTTCAA,0.00636
14,ACATAGAA,0.00827
15,AAGACAAA,-0.142
16,CAGCGGAC,0.184
17,TAAAGGTA,-0.163
18,CACTAAAG,-0.138
19,CTTTGATC,-0.0525
20,ATTACAAC,0.00988
21,ATACCTCA,-0.194
22,CTGGATTC,-0.0302
23,ACTTCCTC,-0.237
24,CAGCCCTG,-0.141
25,CGACGCAG,0.0463

row,Sequence,PBM E-score
1,TCCCGTAA,0.145
2,AGAGAAAG,-0.282
3,AACAGCTG,-0.207
4,AACTGCAC,-0.18
5,GCTGAAGA,-0.137
6,CAGCTACC,-0.096
7,CAATCCGG,0.375
8,ATTGCTCA,-0.281
9,ATTTGCTC,0.0183
10,AGATTGTG,-0.129
11,CTGGTTTA,-0.309
12,CACCTAAC,-0.012
13,TCTCGACA,-0.0465
14,AGTACACA,-0.00376
15,GCTTTCGA,-0.173
16,CAACTGTA,-0.234
17,CCACTTCG,0.164
18,ATTGTTTC,0.193
19,ATGTCAGG,-0.163
20,CCCGAGGA,0.192
21,AGGAGGAG,-0.289
22,CTTTGATA,-0.0983
